Source: the supplement of paper PMC9446081
Hit rate of the full screen: of about 39,000 compounds, about 220 (0.56%) showed activity. This is one part of the list.
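Also: static incubation at 37 °C against the wild-type strain, values averaged over two biological replicates.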

Each molecule was assayed on Escherichia coli K-12 BW25113 (assay: relative growth (OD600 normalised to plate interquartile mean) (fraction); higher = less growth inhibition, active = 0.2 or less). Conditions: 50 µM; LB; incubation time: overnight (16-24 h).
With `CC(C)NC(=O)Nc1ccc2c(c1)C(=O)N([C@@H](C)CO)C[C@H](C)[C@H](CN(C)Cc1ccc(Cl)c(Cl)c1)OCCCC[C@@H](C)O2` the relative growth was inactive: 1.
In the case of `C[C@H]1CN([C@@H](C)CO)C(=O)Cc2cc(NC(=O)Nc3ccc4c(c3)OCO4)ccc2O[C@@H]1CN(C)Cc1ccc(Cl)c(Cl)c1`, the relative growth is reported as inactive: 1.01.
For `Cc1ccc(-c2ccc3c(c2)O[C@@H](CN(C)C(=O)CN(C)C)[C@@H](C)CN([C@@H](C)CO)S3(=O)=O)cc1`, the relative growth was inactive: 0.951.
In the case of `OCc1ccccc1-c1ccccc1`, the relative growth is reported as inactive: 0.962.
For `CC(C)NC(=O)N(C)C[C@H]1Oc2ccc(NC(=O)CCN3CCOCC3)cc2C(=O)N([C@H](C)CO)C[C@@H]1C`, the relative growth was inactive: 1.01.
`Cc1noc(C)c1S(=O)(=O)Nc1ccc2c(c1)C(=O)N([C@H](C)CO)C[C@@H](C)[C@@H](CN(C)Cc1ccc(C(F)(F)F)cc1)OCCCC[C@@H](C)O2` was tested, and the relative growth was inactive: 0.984.
In the case of `Cc1noc(C)c1NC(=O)N(C)C[C@H]1Oc2ccc(NC(=O)C3CC3)cc2C(=O)N([C@@H](C)CO)C[C@H]1C`, the relative growth is reported as inactive: 0.987.
With `C[C@H]1CN([C@@H](C)CO)C(=O)c2cc(NC(=O)CCN3CCOCC3)ccc2O[C@H]1CN(C)S(=O)(=O)c1ccc(Cl)cc1` the relative growth was inactive: 0.987.
In the case of `CCOC(=O)COc1ccc(-c2nn[nH]n2)cc1`, the relative growth is reported as inactive: 0.983.
`C[C@@H]1CN([C@@H](C)CO)C(=O)CCCn2cc(nn2)CO[C@H]1CN(C)S(C)(=O)=O` was tested, and the relative growth was inactive: 1.02.
For `C[C@@H]1CCCCO[C@H](CN(C)Cc2ccc(Cl)c(Cl)c2)[C@@H](C)CN([C@H](C)CO)C(=O)c2cc(NC(=O)Nc3ccc4c(c3)OCO4)ccc2O1`, the relative growth was inactive: 0.994.
In the case of `C[C@@H]1CN([C@@H](C)CO)C(=O)Cc2cc(NC(=O)Cn3cnnn3)ccc2O[C@@H]1CN(C)Cc1ccc(Cl)c(Cl)c1`, the relative growth is reported as inactive: 0.983.
In the case of `C[C@@](N)(C(=O)O)c1ccc(-c2nn[nH]n2)cc1`, the relative growth is reported as inactive: 0.988.
`Cc1nn(C[C@@H](O)Cn2cnc3c2c(=O)n(C)c(=O)n3C)c(C)c1Br` was tested, and the relative growth was inactive: 1.01.
For `O=c1c(-c2ccccc2F)coc2cc(O[C@@H]3O[C@H](CO)[C@@H](O)[C@H](O)[C@@H]3O)ccc12`, the relative growth was inactive: 0.976.
For `COc1ccc(S(=O)(=O)N(C)C[C@H]2Oc3ccc(NC(=O)Cc4ccccc4)cc3C(=O)N([C@@H](C)CO)C[C@H]2C)cc1`, the relative growth was inactive: 1.01.
With `C[C@@H]1CN([C@H](C)CO)C(=O)c2ccccc2-c2ccccc2CO[C@@H]1CN(C)S(=O)(=O)c1cn(C)cn1` the relative growth was inactive: 0.997.
For `C[C@@H]1CN([C@@H](C)CO)C(=O)c2cc(Br)cnc2O[C@H]1CN(C)C(=O)c1ccc2c(c1)OCO2`, the relative growth was inactive: 0.994.
With `Cc1noc(C)c1S(=O)(=O)Nc1ccc2c(c1)C(=O)N([C@@H](C)CO)C[C@H](C)[C@H](CN(C)S(=O)(=O)c1cn(C)cn1)O2` the relative growth was inactive: 0.981.
With `CC(C)N1C[C@H](C)[C@@H](CN(C)Cc2ccc(Oc3ccccc3)cc2)Oc2c(cccc2-c2nn[nH]n2)C1=O` the relative growth was inactive: 0.998.
For `CCS(=O)(=O)N1CC[C@]2(CC1)CN([C@@H](CO)c1[nH]c3cc(ccc3c12)OC)C(=O)Nc1c(noc1C)C`, the relative growth was inactive: 0.966.
With `Cc1cc(C(=O)Nc2cccc3c2O[C@H](CN(C)S(=O)(=O)c2c(C)noc2C)[C@H](C)CN([C@@H](C)CO)C3=O)n(C)n1` the relative growth was inactive: 1.01.
In the case of `CC(=O)NCCCC[C@@H]1NC(=O)[C@H]2C[C@@H](C(=O)NCCCCCCNC(=O)CS)[C@@H](c3ccc(O)cc3)N2C1=O`, the relative growth is reported as inactive: 1.03.
With `Clc1ccc(Sc2ccc(-c3ccccn3)s2)cc1` the relative growth was inactive: 0.991.
With `COc1cccc(S(=O)(=O)N(C)C[C@H]2Oc3cc(C#CCC(C)C)ccc3S(=O)(=O)N([C@@H](C)CO)C[C@H]2C)c1` the relative growth was inactive: 0.934.
With `CC(C)N1CC2(CN(Cc3ccc(Cl)c(Cl)c3)C2)Oc2c(NC(=O)c3ccncc3)cccc2C1=O` the relative growth was inactive: 0.972.
For `O=C(CN1CCOCC1)NCC[C@@H]1CC[C@H](NS(=O)(=O)c2ccc(F)cc2)[C@H](CO)O1`, the relative growth was inactive: 0.973.
`Cc1ccc(S(=O)(=O)Nc2ccc3c(c2)CC(=O)N([C@@H](C)CO)C[C@@H](C)[C@@H](CN(C)S(=O)(=O)c2cn(C)cn2)O3)cc1` was tested, and the relative growth was inactive: 0.979.
`COC(=O)C(CC#Cc1ccc2c(c1)[C@]1(C(=O)N2)[C@H](c2ccc(O)cc2)N2[C@H](c3ccccc3)[C@H](c3ccccc3)OC(=O)[C@H]2[C@@H]1C(=O)NC[C@H](O)c1ccccc1)C(=O)OC` was tested, and the relative growth was inactive: 1.01.
`C[C@H]1CN([C@@H](C)CO)C(=O)c2cc(NC(=O)Nc3ccc(C(F)(F)F)cc3)ccc2O[C@@H]1CN(C)S(C)(=O)=O` was tested, and the relative growth was inactive: 0.989.
In the case of `C[C@H](CO)N1C[C@H](C)[C@H](CN(C)S(=O)(=O)c2ccc(F)cc2)OCCCC[C@H](C)Oc2ccc(NS(=O)(=O)c3ccc(Cl)cc3)cc2C1=O`, the relative growth is reported as inactive: 1.01.
For `CC(C)CC#Cc1cnc2c(c1)C(=O)N([C@H](C)CO)C[C@@H](C)[C@@H](CN(C)S(=O)(=O)c1cn(C)cn1)O2`, the relative growth was inactive: 0.998.
`C[C@@H]1CN([C@H](C)CO)C(=O)c2cccc(NS(=O)(=O)c3ccc(F)cc3)c2O[C@@H]1CN(C)S(C)(=O)=O` was tested, and the relative growth was inactive: 1.
For `O=C(C[C@H]1CC[C@@H]2[C@H](COC[C@H](O)CN2CC2CCOCC2)O1)N1CCOCC1`, the relative growth was inactive: 0.989.
In the case of `COC(=O)c1cn(CC(=O)N2CCOCC2)nn1`, the relative growth is reported as inactive: 1.
In the case of `CC(C)(C)[S@](=O)N1Cc2cc(C(=O)N[C@@H]3CCN(Cc4ccccc4)C3)nc(-c3cccc(-c4ccncc4)c3)c2[C@@H]1CCO`, the relative growth is reported as inactive: 0.996.
`O=C(C[C@@H]1CC[C@H](NC(=O)CN2CCOCC2)[C@H](CO)O1)NCCc1ccccc1` was tested, and the relative growth was inactive: 1.
In the case of `[N-]=[N+]=Nc1ccccc1C[C@@]1(C(=O)N2CCCCC2)N=C(c2ccc(OCCCO)cc2)O[C@@H]1c1ccccc1`, the relative growth is reported as inactive: 1.01.
`Cc1noc(C)c1NC(=O)N(C)C[C@@H]1Oc2ccc(NS(=O)(=O)c3cccs3)cc2CC(=O)N([C@@H](C)CO)C[C@H]1C` was tested, and the relative growth was inactive: 1.
In the case of `COC(=O)[C@@H]1C[C@H](C#N)N[C@@H]1c1ccccn1`, the relative growth is reported as inactive: 0.936.
With `C[C@@H]1CN([C@H](C)CO)C(=O)Cc2cc(NC(=O)Nc3ccc(F)cc3)ccc2O[C@@H]1CN(C)Cc1ccc(-c2ccccc2)cc1` the relative growth was inactive: 0.951.
For `C[C@@H]1CN([C@H](C)CO)C(=O)Cc2cc(NS(=O)(=O)c3ccc(Cl)cc3)ccc2O[C@@H]1CN(C)Cc1ccc(C(F)(F)F)cc1`, the relative growth was inactive: 1.04.
For `C[C@@H]1CN([C@H](C)CO)S(=O)(=O)c2ccc(Br)cc2O[C@H]1CN(C)S(=O)(=O)c1ccccc1`, the relative growth was inactive: 1.03.
In the case of `C[C@H]1CN([C@@H](C)CO)C(=O)c2cccc(NC(=O)Nc3cccc4ccccc34)c2O[C@H]1CN(C)CC1CC1`, the relative growth is reported as inactive: 0.98.
For `C[C@H](CO)N1C[C@H](C)[C@H](CN(C)C(=O)NC2CCCC2)Oc2cc(-c3cncnc3)ccc2S1(=O)=O`, the relative growth was inactive: 0.987.
`C[C@@H]1CCCCO[C@@H](CN(C)S(=O)(=O)c2ccc(F)cc2)[C@@H](C)CN([C@@H](C)CO)C(=O)c2cc(NC(=O)Nc3ccc(C(F)(F)F)cc3)ccc2O1` was tested, and the relative growth was inactive: 1.
In the case of `C=C(C1=CCN(S(=O)(=O)c2ccc(C)cc2)C1)[C@@H](OC(C)=O)[C@@H]1CCCN1S(=O)(=O)c1ccccc1[N+](=O)[O-]`, the relative growth is reported as inactive: 1.01.
With `C[C@@H]1CN([C@@H](C)CO)C(=O)c2cc(NC(=O)CCC(F)(F)F)ccc2O[C@@H](C)CCCCO[C@H]1CN(C)C(=O)Nc1ccc(C(F)(F)F)cc1` the relative growth was inactive: 1.02.
`O=C(C[C@H]1CC[C@@H]2[C@H](COC[C@H](O)CN2S(=O)(=O)c2ccc(F)cc2)O1)N[C@@H]1CCN(Cc2ccccc2)C1` was tested, and the relative growth was inactive: 0.993.
`C[C@H]1CN([C@@H](C)CO)C(=O)c2cc(NC(=O)CCC(F)(F)F)ccc2O[C@H]1CN(C)Cc1ccc(Cl)c(Cl)c1` was tested, and the relative growth was inactive: 1.02.
In the case of `COc1ccc(CN(C)C[C@@H]2OCCCC[C@@H](C)Oc3ccc(NS(=O)(=O)c4ccc(F)cc4)cc3C(=O)N([C@@H](C)CO)C[C@H]2C)cc1`, the relative growth is reported as inactive: 0.995.
`C[C@H]1CN([C@@H](C)CO)C(=O)c2cc(Br)cnc2O[C@H]1CN(C)S(=O)(=O)c1ccccc1` was tested, and the relative growth was inactive: 1.01.
For `C[C@@H]1CCCCO[C@@H](CN(C)Cc2ccccc2)[C@H](C)CN([C@H](C)CO)C(=O)c2cc(NS(=O)(=O)c3ccc(F)cc3)ccc2O1`, the relative growth was inactive: 1.
For `C[C@@H]1CCCCO[C@H](CN(C)C(=O)Nc2ccc(C(F)(F)F)cc2)[C@H](C)CN([C@@H](C)CO)C(=O)c2cc(NS(C)(=O)=O)ccc2O1`, the relative growth was inactive: 0.966.
For `N[C@@H]1[C@H]2CN(c3nc4c(cc3F)c(=O)c(C(=O)O)cn4-c3ccc(F)cc3F)C[C@@H]12`, the relative growth was active: 0.0389.
`CCn1c(C)cc(C)c(C(=O)N2C[C@H]3C(=O)NC[C@@]3(C(=O)O)C2)c1=O` was tested, and the relative growth was inactive: 0.961.
For `O=c1nc(N2CCc3ccccc3C2)cn[nH]1`, the relative growth was inactive: 1.03.
With `C[C@@H]1CN([C@H](C)CO)C(=O)CCCn2cc(nn2)CO[C@@H]1CN(C)C(=O)Nc1ccc(N2CCN(C)CC2)cc1` the relative growth was inactive: 0.966.
For `Cc1ccc(S(=O)(=O)Nc2cccc3c2O[C@@H](CN(C)Cc2ccc(Oc4ccccc4)cc2)[C@H](C)CN([C@H](C)CO)C3=O)cc1`, the relative growth was inactive: 1.05.
With `COCCNC(=O)C[C@@H]1C[C@H]2c3cc(NC(=O)Nc4ccc(C(F)(F)F)cc4)ccc3O[C@H]2[C@H](CO)O1` the relative growth was inactive: 0.95.
